Measured values from PubChem BioAssay AID720709 (National Center for Advancing Translational Sciences (NCATS), 2013).
About 520 (0.14%) of roughly 360,000 compounds were called active. Inconclusive means that the source gave no clear call. Such entries were picked first, then a sample of the others. The call rests on the fitted dose curve; in most records, active means well fitted inhibition curve with a large enough effect; inconclusive means small, poorly fitted or top-dose-only effect; inactive means no such curve, though single readings can be large or run the other way. Potencies of inconclusive entries are left out as doubtful fits.

target: Rap guanine nucleotide exchange factor 3 (Homo sapiens) (UniProt O95398); assay: qHTS for Antagonist of cAMP-regulated guanine nucleotide exchange factor 3 (EPAC1): primary screen; conditions: EPAC1 GEF assay, Rap1b-BODIPY-GDP exchange fluorescence; activity change, negative = inhibition: at 115 µM (top of the series); further: nearly all actives have a fitted effect of over 50% in size;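 on activity change, negative = inhibition: plate controls were vehicle for no effect and positive control for full effect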
Sequence of UniProt O95398 (O95398 whole entry, looked up): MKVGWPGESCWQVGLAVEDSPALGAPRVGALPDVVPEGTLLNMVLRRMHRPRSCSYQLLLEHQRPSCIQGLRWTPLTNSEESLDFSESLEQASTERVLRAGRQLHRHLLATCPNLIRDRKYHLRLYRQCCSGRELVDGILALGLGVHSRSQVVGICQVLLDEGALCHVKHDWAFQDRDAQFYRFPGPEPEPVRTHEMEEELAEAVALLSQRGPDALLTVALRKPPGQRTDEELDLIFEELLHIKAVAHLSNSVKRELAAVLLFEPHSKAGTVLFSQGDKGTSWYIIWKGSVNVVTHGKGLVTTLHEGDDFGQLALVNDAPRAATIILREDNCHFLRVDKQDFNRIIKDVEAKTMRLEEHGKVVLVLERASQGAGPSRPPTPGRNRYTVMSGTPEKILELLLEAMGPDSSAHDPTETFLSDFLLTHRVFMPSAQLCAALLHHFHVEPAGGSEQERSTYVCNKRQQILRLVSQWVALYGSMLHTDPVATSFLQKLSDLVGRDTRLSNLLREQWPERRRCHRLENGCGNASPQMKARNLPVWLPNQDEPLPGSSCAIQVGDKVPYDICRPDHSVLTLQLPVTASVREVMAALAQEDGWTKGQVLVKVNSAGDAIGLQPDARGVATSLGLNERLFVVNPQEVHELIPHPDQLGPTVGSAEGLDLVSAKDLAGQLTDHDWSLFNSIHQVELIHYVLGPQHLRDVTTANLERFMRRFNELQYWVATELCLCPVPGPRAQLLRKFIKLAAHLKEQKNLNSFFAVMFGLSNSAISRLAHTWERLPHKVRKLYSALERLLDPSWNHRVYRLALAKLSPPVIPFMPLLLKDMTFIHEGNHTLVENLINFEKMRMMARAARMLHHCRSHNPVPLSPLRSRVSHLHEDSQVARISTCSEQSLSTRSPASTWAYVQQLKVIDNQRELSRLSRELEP
Potency means the concentration at half of the fitted maximal effect; tags describe the fitted curve by direction and shape.

Structure (SMILES)	Potency	activity change, negative = inhibition
CC(=O)Oc1ccc(C(=O)Nc2cccc(C(=O)Nc3ccccc3C(=O)O)c2)cc1	inconclusive [inhibitor, single point]	
COc1ccc(S(=O)(=O)NC(=O)C2(C)CCN2C(=O)C2(c3ccccc3)CCCC2)cc1 (stereo unspecified)	inconclusive [inhibitor, single point]	
NS(=O)(=O)c1ccc(CNc2ccc3ccccc3n2)cc1	inactive	
O=C(CSc1nnc(-c2cccc(S(=O)(=O)N3CCCC3)c2)n1-c1ccccc1)Nc1ccc(C(=O)O)cc1	inconclusive [inhibitor, full curve, poor fit]	
COc1ccc(CN(CC(O)COCc2ccccc2)S(=O)(=O)c2ccccc2Br)cc1 (stereo unspecified)		inconclusive: -14.8% [inhibitor]
CN1CCN(CCCN2c3ccccc3Sc3ccc(C(F)(F)F)cc32)CC1	inactive	
CC1CCCC(C)N1/N=C/c1ccccc1F (stereo unspecified)	inconclusive [inhibitor, single point]	
COCCCNC(=S)Nc1cccc2ncccc12	inconclusive [inhibitor, partial curve, poor fit]	
CC1CCN(Cc2c(C(=O)N/N=C/c3ccc(OC(C)C)cc3)nnn2-c2nonc2N)CC1	inconclusive [inhibitor, full curve]	
CC(=O)NC(CCS(C)(=O)=O)C(=O)Nc1cc(C)on1 (stereo unspecified)	inconclusive [inhibitor, single point]	
O=C(c1ccc([N+](=O)[O-])cc1)N(Cc1ccc(Br)cc1)N1C(=O)CCCC1=O	inactive	
Brc1cccc(C2Nc3cccc4cccc(c34)N2)c1	inconclusive [inhibitor, single point]	
CC(=O)N1CCc2ccc(S(=O)(=O)Nc3ccccc3Cl)cc21	inconclusive [inhibitor, partial curve, poor fit]	
Cc1ccc(C(=O)Nc2c(-c3ccccc3)[nH][nH]c2=O)cc1	inactive	
Cn1c(C(=O)NC2CCCCC2)cc2c(=O)n3ccccc3nc21	inactive	
Cc1nc2c(C#N)cnn2c2c1CCN2CC1CCCO1 (stereo unspecified)	inconclusive [inhibitor, single point]	
COc1ccc(/C=C2\SC(=O)N(CCNC(=O)C3CC4C=CC3C4)C2=O)cc1 (stereo unspecified)	inconclusive [inhibitor, single point]	
Cc1cc(C(=O)N/N=C/C=C/c2ccccc2[N+](=O)[O-])c(C)o1	inconclusive [inhibitor, partial curve]	
COc1ccc(CN2C(=O)CCC2(C)C(=O)NC2CCCC2)c(OC)c1 (stereo unspecified)	inconclusive [inhibitor, single point]	
O=C(Nc1ccc2nc(-c3ccco3)c(-c3ccco3)nc2c1)N1CCN(c2ccccn2)CC1	active: 35.5 µM	
CCCC(=O)O[C@@H]1C[C@@H](C)N(C(=O)c2ccccc2)c2ccc(C)cc21	inactive	

Structure (SMILES)	Potency	activity change, negative = inhibition
COc1ccc(-c2csc(NC(=O)CC(NC(C)=O)c3ccccc3)n2)cc1OC (stereo unspecified)	inconclusive [inhibitor, single point]	
CCC(=O)NC(c1ccc(OC)c(OC)c1)c1cc(Cl)c2cccnc2c1O (stereo unspecified)	inconclusive [inhibitor, single point]	
COc1ccc(NC(=S)Nc2ccc3nsnc3c2)cc1	inconclusive [inhibitor, partial curve]	
NC(=O)C1(N2CCCCC2)CCN(C(=S)Nc2ccc(F)cc2)CC1	inconclusive [inhibitor, partial curve, poor fit]	
CCc1ccc(N2CC(C(=O)N/N=C/c3cc([N+](=O)[O-])ccc3O)CC2=O)cc1 (stereo unspecified)	inconclusive [inhibitor, full curve, poor fit]	
COc1ccc2oc(=O)cc(-c3cc4cccc(OC)c4o3)c2c1	inconclusive [inhibitor, single point]	
COc1cc(OC)cc(N(C(=O)C2COc3ccccc3O2)C(C(=O)NC2CCCCC2)c2ccc(O)cc2)c1 (stereo unspecified)	inconclusive [inhibitor, partial curve, poor fit]	
c1cncc(-c2nc(NCC3CCCO3)c3ccccc3n2)c1 (stereo unspecified)	inconclusive [inhibitor, partial curve]	
COc1ccc(-c2coc3c(C)c4oc(=O)c(CCC(=O)O)c(C)c4cc23)cc1	inconclusive [inhibitor, partial curve]	
Cc1ccc(N(CC2CO2)S(=O)(=O)c2ccc([N+](=O)[O-])cc2)cc1 (stereo unspecified)	inconclusive [inhibitor, partial curve]	
Cc1nc2c(nc1C)C(=O)c1ccccc1C2=O	inactive	
COc1cc(/C=N/NC(N)=S)cc(Br)c1OCc1ccccc1F	inconclusive [inhibitor, full curve, poor fit]	
O=S(=O)(Nc1nc2ccccc2nc1NCC1CCCO1)c1ccc(F)cc1 (stereo unspecified)	inconclusive [inhibitor, single point]	
O=C1c2[nH]nc(-c3ccccc3O)c2C(c2ccc(F)cc2)N1Cc1ccco1 (stereo unspecified)	inconclusive [inhibitor, single point]	
c1ccc2c(c1)CCc1c(-c3ccncc3)n[nH]c1-2	inconclusive [inhibitor, single point]	
COc1cccc(C(=O)Nc2cc(C(=O)NCCc3ccccc3)ccc2Cl)c1	inactive	
CCCc1ccc(NC(=O)C2CCN(c3cnccn3)CC2)cc1	inconclusive [inhibitor, partial curve, poor fit]	
CCCOc1ccc(C(=O)C(CN2CCCC2)c2ccccc2)cc1 (stereo unspecified)	inconclusive [inhibitor, partial curve, poor fit]	
CC(=O)c1ccc(N2CCN(C(=O)Nc3cccc(F)c3)CC2)cc1	inconclusive [inhibitor, single point]	
O=C(Nc1nc(-c2ccco2)c(-c2ccco2)s1)c1c(F)cccc1Cl	inconclusive [inhibitor, full curve, poor fit]	
